Laboratory results published in patent publication US20070280957A1, “Change of the Load State of Mhc Molecules” (priority 2004, published 2007).

Columns and labels:
Type in all cases: cell-based
[1] = target: T1, HLA-DR1 (DRB1*0101) on L57.23 cells (Homo sapiens, UniProt P01903+P01911, A100R/D57E/F55L/F60I/F76Y/I96L/L162R/M171V/P40L/Q125E/R42F/V115G/Y59C); assay: Loading of HLA-DR1 on the cell surface of fibroblast cells with biotinylated peptide, flow cytometry
T1 construct: expressed in transfected cells; host or cells: L57.23 fibroblast cells

[2] = target: T2, HLA-DR4 (DRB1*0401) on L243.6 cells (Homo sapiens, UniProt P01903+P01911, A100K/A169T/F76Y/I96L/K127E/L162R/M171V/N62H/P40V/Q125Y/R42H/S133A/S149N/S66Y/V115G/V209L/W38E); assay: Loading of HLA-DR4 on the cell surface of fibroblast cells with biotinylated peptide, flow cytometry
T2 construct: expressed in transfected cells; host or cells: L243.6 fibroblast cells

HLA-DR1 tetramers = target: T3, HLA-DR1 tetramers (Homo sapiens, UniProt P01903+P01911, A100R/D57E/F55L/F60I/F76Y/I96L/L162R/M171V/P40L/Q125E/R42F/V115G/Y59C); assay: Loading of MHC class II tetramers (ligand replacement IC106-120 by HA306-318), staining of T-cells, flow cytometry
T3 construct: purchased Proimmune Ltd

loading of membrane-located HLA-DR1 complexes compared with pCP ([1]; 8 μM HA-biot., 0.1, 0.05, 0.025 mM vs pCP 1, 0.5, 0.25 mM (ten times lower concentrations)): almost equally high loading
loading of cells with HA306-318, dose-activity curves compared with pCP ([1]; L57.23 cells, 4 hours, 37° C., active at markedly less than a tenth of the pCP concentration): substantially more active than pCP
loading of HLA-DR4 complexes compared with pCP ([2]; 8 μM HA-biot., a tenth of the pCP concentration): increased loading compared to pCP
loading of cells with HA306-318, dose-activity curves compared with pCP ([2]; L243.6 cells, 4 hours, 37° C., active at markedly less than a tenth of the pCP concentration): substantially more active than pCP
staining of A10 T-cells (negative control, antigen specificity) with catalyst-loaded tetramers (HLA-DR1 tetramers; HLA-DRw52a-restricted TT1272-1284-specific A10 T-cells): not stained
Compound: OCCC12CC3CC(CC(C3)C1)C2 [I 1, 2-(1-adamantyl)-ethanol]
signal of PD2 T-cells stained with IC tetramers loaded with HA306-318 (HLA-DR1 tetramers; overnight incubation with catalyst and HA306-318): of a similar height to that delivered by the pre-prepared HA tetramers
